Reference: PMC12820563, “FoxP3 forms a head-to-head dimer in vivo and stabilizes its multimerization on adjacent microsatellites”
The list shows a part of the results.

biological target: T1, MBP-FoxP1dN (Mus musculus, UniProt P58462 326-579); experiment: PD-seq (MBP pull-down with sequencing); 20 mM Tris-HCl pH 7.5, 100 mM NaCl, 1.5 mM MgCl2, 0.4 uM protein, 0.1 uM dsDNA library, 30 min, room temperature, amylose pull-down; high values mean tight binding; conditions: protein: recombinant; tags: His6-MBP; chain copies: 2; dsDNA, one strand shown
T1 sequence: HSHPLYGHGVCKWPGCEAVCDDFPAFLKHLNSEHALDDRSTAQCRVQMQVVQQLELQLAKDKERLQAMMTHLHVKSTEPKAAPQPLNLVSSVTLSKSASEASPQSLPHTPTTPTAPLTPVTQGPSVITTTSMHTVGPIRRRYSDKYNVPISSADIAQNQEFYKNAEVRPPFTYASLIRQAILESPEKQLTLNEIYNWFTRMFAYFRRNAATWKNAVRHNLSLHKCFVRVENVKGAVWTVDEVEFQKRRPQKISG
Summary of the method: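 The N-terminus-lacking fragment of mouse FoxP3 or FoxP1 carried a His6-MBP tag and was expressed in E. coli. At 0.4 µM it was incubated with 0.1 µM Klenow-filled degenerate double-stranded DNA library for 30 min at room temperature in Tris pH 7.5 buffer with NaCl and MgCl2, and complexes were caught on amylose resin, washed three times, released with proteinase K, PCR-barcoded and Illumina-sequenced. Binding is reads-per-million enrichment of pull-down over input with replicates pooled.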

**Q.** With “GATGATTGTTCTCCCAGCTGATGAATTCGTTAACTCGAGTAAACAAATTTTCCTAATCTTTCTGTTCAAGCGCCATCTAC” as the sequence, how does the binding signal read?
**A.** The binding signal was 0.899 RPM ratio (pull-down/input).

**Q.** With “GATGATTGTTCTCCCAGCTGATGAATTAGGGTCGTCGAGTAAACAAATTTTCCTAATCTTTCTGTTCAAGCGCCATCTAC” as the sequence, how does the binding signal read?
**A.** The binding signal was 0.782 RPM ratio (pull-down/input).

**Q.** “GATGATTGTTCTCCCAGCTGATGAATTCAGCATGTCGAGTAAACAAATTTTCCTAATCTTTCTGTTCAAGCGCCATCTAC” was tested. Which binding signal did it give?
**A.** The binding signal was 0.834 RPM ratio (pull-down/input).

**Q.** “GATGATTGTTCTCCCAGCTGATGAATTCGCCCCCTCGAGTAAACAAATTTTCCTAATCTTTCTGTTCAAGCGCCATCTAC” was tested. Which binding signal did it give?
**A.** Its binding signal is 0.768 RPM ratio (pull-down/input).

**Q.** With “GATGATTGTTCTCCCAGCTGATGAATTGGGTATCTCGAGTAAACAAATTTTCCTAATCTTTCTGTTCAAGCGCCATCTAC” as the sequence, how does the binding signal read?
**A.** Its binding signal is 0.935 RPM ratio (pull-down/input).

**Q.** How did the binding signal turn out when “GATGATTGTTCTCCCAGCTGATGAATTGTCTGTTTCGAGTAAACAAATTTTCCTAATCTTTCTGTTCAAGCGCCATCTAC” was run?
**A.** The binding signal was 1.18 RPM ratio (pull-down/input).

**Q.** For “GATGATTGTTCTCCCAGCTGATGAATTCGTTTCATCGAGTAAACAAATTTTCCTAATCTTTCTGTTCAAGCGCCATCTAC”, which binding signal is on record?
**A.** Its binding signal is 0.885 RPM ratio (pull-down/input).

**Q.** “GATGATTGTTCTCCCAGCTGATGAATTCTTGATTTCGAGTAAACAAATTTTCCTAATCTTTCTGTTCAAGCGCCATCTAC” was tested. Which binding signal did it give?
**A.** The binding signal was 1.33 RPM ratio (pull-down/input).

**Q.** With “GATGATTGTTCTCCCAGCTGATGAATTAGTGCTTTCGAGTAAACAAATTTTCCTAATCTTTCTGTTCAAGCGCCATCTAC” as the sequence, how does the binding signal read?
**A.** The binding signal was 1.15 RPM ratio (pull-down/input).

**Q.** Which binding signal does the source give for “GATGATTGTTCTCCCAGCTGATGAATTATGATGTTCGAGTAAACAAATTTTCCTAATCTTTCTGTTCAAGCGCCATCTAC” here?
**A.** Its binding signal is 1.22 RPM ratio (pull-down/input).

**Q.** For “GATGATTGTTCTCCCAGCTGATGAATTGGTGACATCGAGTAAACAAATTTTCCTAATCTTTCTGTTCAAGCGCCATCTAC”, which binding signal is on record?
**A.** Its binding signal is 1.1 RPM ratio (pull-down/input).

**Q.** How did the binding signal turn out when “GATGATTGTTCTCCCAGCTGATGAATTGATCAGTTCGAGTAAACAAATTTTCCTAATCTTTCTGTTCAAGCGCCATCTAC” was run?
**A.** Its binding signal is 1.01 RPM ratio (pull-down/input).

**Q.** Which binding signal does the source give for “GATGATTGTTCTCCCAGCTGATGAATTTATTCGGTCGAGTAAACAAATTTTCCTAATCTTTCTGTTCAAGCGCCATCTAC” here?
**A.** Its binding signal is 1.05 RPM ratio (pull-down/input).

**Q.** How did the binding signal turn out when “GATGATTGTTCTCCCAGCTGATGAATTGCCCCGATCGAGTAAACAAATTTTCCTAATCTTTCTGTTCAAGCGCCATCTAC” was run?
**A.** Its binding signal is 0.835 RPM ratio (pull-down/input).

**Q.** How did the binding signal turn out when “GATGATTGTTCTCCCAGCTGATGAATTTTCGGTATCGAGTAAACAAATTTTCCTAATCTTTCTGTTCAAGCGCCATCTAC” was run?
**A.** Its binding signal is 0.949 RPM ratio (pull-down/input).

**Q.** Which binding signal does the source give for “GATGATTGTTCTCCCAGCTGATGAATTCATGTCGTCGAGTAAACAAATTTTCCTAATCTTTCTGTTCAAGCGCCATCTAC” here?
**A.** Its binding signal is 0.988 RPM ratio (pull-down/input).

**Q.** Which binding signal does the source give for “GATGATTGTTCTCCCAGCTGATGAATTGTAAAGTTCGAGTAAACAAATTTTCCTAATCTTTCTGTTCAAGCGCCATCTAC” here?
**A.** The binding signal was 0.993 RPM ratio (pull-down/input).

**Q.** Which binding signal does the source give for “GATGATTGTTCTCCCAGCTGATGAATTAGAACTTTCGAGTAAACAAATTTTCCTAATCTTTCTGTTCAAGCGCCATCTAC” here?
**A.** Its binding signal is 0.886 RPM ratio (pull-down/input).

**Q.** How did the binding signal turn out when “GATGATTGTTCTCCCAGCTGATGAATTAGCGGGATCGAGTAAACAAATTTTCCTAATCTTTCTGTTCAAGCGCCATCTAC” was run?
**A.** Its binding signal is 0.824 RPM ratio (pull-down/input).

**Q.** Which binding signal does the source give for “GATGATTGTTCTCCCAGCTGATGAATTAGGGTTATCGAGTAAACAAATTTTCCTAATCTTTCTGTTCAAGCGCCATCTAC” here?
**A.** The binding signal was 0.956 RPM ratio (pull-down/input).

**Q.** With “GATGATTGTTCTCCCAGCTGATGAATTAGAACTCTCGAGTAAACAAATTTTCCTAATCTTTCTGTTCAAGCGCCATCTAC” as the sequence, how does the binding signal read?
**A.** Its binding signal is 0.819 RPM ratio (pull-down/input).

**Q.** Which binding signal does the source give for “GATGATTGTTCTCCCAGCTGATGAATTCGCTTCATCGAGTAAACAAATTTTCCTAATCTTTCTGTTCAAGCGCCATCTAC” here?
**A.** The binding signal was 0.861 RPM ratio (pull-down/input).

**Q.** With “GATGATTGTTCTCCCAGCTGATGAATTTGGGTGTTCGAGTAAACAAATTTTCCTAATCTTTCTGTTCAAGCGCCATCTAC” as the sequence, how does the binding signal read?
**A.** The binding signal was 1.03 RPM ratio (pull-down/input).

**Q.** Which binding signal does the source give for “GATGATTGTTCTCCCAGCTGATGAATTCGCTACATCGAGTAAACAAATTTTCCTAATCTTTCTGTTCAAGCGCCATCTAC” here?
**A.** Its binding signal is 0.968 RPM ratio (pull-down/input).

**Q.** Which binding signal does the source give for “GATGATTGTTCTCCCAGCTGATGAATTCGGCTTTTCGAGTAAACAAATTTTCCTAATCTTTCTGTTCAAGCGCCATCTAC” here?
**A.** Its binding signal is 0.85 RPM ratio (pull-down/input).

**Q.** “GATGATTGTTCTCCCAGCTGATGAATTAGTAAAGTCGAGTAAACAAATTTTCCTAATCTTTCTGTTCAAGCGCCATCTAC” was tested. Which binding signal did it give?
**A.** Its binding signal is 1.05 RPM ratio (pull-down/input).

**Q.** How did the binding signal turn out when “GATGATTGTTCTCCCAGCTGATGAATTTTATCGTTCGAGTAAACAAATTTTCCTAATCTTTCTGTTCAAGCGCCATCTAC” was run?
**A.** The binding signal was 1 RPM ratio (pull-down/input).

**Q.** For “GATGATTGTTCTCCCAGCTGATGAATTTAGCACCTCGAGTAAACAAATTTTCCTAATCTTTCTGTTCAAGCGCCATCTAC”, which binding signal is on record?
**A.** The binding signal was 0.919 RPM ratio (pull-down/input).

**Q.** For “GATGATTGTTCTCCCAGCTGATGAATTAAATAACTCGAGTAAACAAATTTTCCTAATCTTTCTGTTCAAGCGCCATCTAC”, which binding signal is on record?
**A.** The binding signal was 1.4 RPM ratio (pull-down/input).

**Q.** With “GATGATTGTTCTCCCAGCTGATGAATTTTGGGGATCGAGTAAACAAATTTTCCTAATCTTTCTGTTCAAGCGCCATCTAC” as the sequence, how does the binding signal read?
**A.** Its binding signal is 0.804 RPM ratio (pull-down/input).

**Q.** Which binding signal does the source give for “GATGATTGTTCTCCCAGCTGATGAATTCCAGCGGTCGAGTAAACAAATTTTCCTAATCTTTCTGTTCAAGCGCCATCTAC” here?
**A.** The binding signal was 0.744 RPM ratio (pull-down/input).

**Q.** For “GATGATTGTTCTCCCAGCTGATGAATTGATACAATCGAGTAAACAAATTTTCCTAATCTTTCTGTTCAAGCGCCATCTAC”, which binding signal is on record?
**A.** Its binding signal is 1.69 RPM ratio (pull-down/input).

**Q.** How did the binding signal turn out when “GATGATTGTTCTCCCAGCTGATGAATTGATATCTTCGAGTAAACAAATTTTCCTAATCTTTCTGTTCAAGCGCCATCTAC” was run?
**A.** The binding signal was 1.04 RPM ratio (pull-down/input).

**Q.** Which binding signal does the source give for “GATGATTGTTCTCCCAGCTGATGAATTACCTAAGTCGAGTAAACAAATTTTCCTAATCTTTCTGTTCAAGCGCCATCTAC” here?
**A.** The binding signal was 0.966 RPM ratio (pull-down/input).

**Q.** How did the binding signal turn out when “GATGATTGTTCTCCCAGCTGATGAATTGGGGGTATCGAGTAAACAAATTTTCCTAATCTTTCTGTTCAAGCGCCATCTAC” was run?
**A.** The binding signal was 0.983 RPM ratio (pull-down/input).

**Q.** With “GATGATTGTTCTCCCAGCTGATGAATTCGGCTATTCGAGTAAACAAATTTTCCTAATCTTTCTGTTCAAGCGCCATCTAC” as the sequence, how does the binding signal read?
**A.** The binding signal was 0.818 RPM ratio (pull-down/input).

**Q.** “GATGATTGTTCTCCCAGCTGATGAATTGGAGTCGTCGAGTAAACAAATTTTCCTAATCTTTCTGTTCAAGCGCCATCTAC” was tested. Which binding signal did it give?
**A.** The binding signal was 0.815 RPM ratio (pull-down/input).

**Q.** Which binding signal does the source give for “GATGATTGTTCTCCCAGCTGATGAATTTGTTAGGTCGAGTAAACAAATTTTCCTAATCTTTCTGTTCAAGCGCCATCTAC” here?
**A.** Its binding signal is 1.16 RPM ratio (pull-down/input).

**Q.** How did the binding signal turn out when “GATGATTGTTCTCCCAGCTGATGAATTAGACGCCTCGAGTAAACAAATTTTCCTAATCTTTCTGTTCAAGCGCCATCTAC” was run?
**A.** Its binding signal is 0.989 RPM ratio (pull-down/input).

**Q.** For “GATGATTGTTCTCCCAGCTGATGAATTGTGTTATTCGAGTAAACAAATTTTCCTAATCTTTCTGTTCAAGCGCCATCTAC”, which binding signal is on record?
**A.** Its binding signal is 2.18 RPM ratio (pull-down/input).
